In all, about 48,000 compounds went through this assay and about 550 (1.1%) were called active. Inconclusive results (about 4%) are left out. Rule as the data show it: active = potency below about 15 µM; inconclusive = mostly about 16 µM to 33 µM; inactive = weaker than that. Some of the results follow.
Molecular target: Lysosomal acid glucosylceramidase (Homo sapiens) (UniProt P04062)
Test: Glucocerebrosidase;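 also: the screen sought inhibitors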
Conditions: purified enzyme, resorufin glucoside fluorescence (screen aimed at inhibitors), 20 min
How it was run: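 Wild-type enzyme at 0.2 nM final in 50mM citric acid/KH2PO4, 10mM sodium taurocholate, 0.01% tween-20, pH 5.9, with resorufin beta-D-glucopyranoside at 30 uM final. Compounds titrated, 20 min at RT, red fluorescence read; AC50 from titration.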
Potency is read from the fitted curve at half-maximal effect.

Chain of UniProt P04062 (P04062 whole entry, looked up): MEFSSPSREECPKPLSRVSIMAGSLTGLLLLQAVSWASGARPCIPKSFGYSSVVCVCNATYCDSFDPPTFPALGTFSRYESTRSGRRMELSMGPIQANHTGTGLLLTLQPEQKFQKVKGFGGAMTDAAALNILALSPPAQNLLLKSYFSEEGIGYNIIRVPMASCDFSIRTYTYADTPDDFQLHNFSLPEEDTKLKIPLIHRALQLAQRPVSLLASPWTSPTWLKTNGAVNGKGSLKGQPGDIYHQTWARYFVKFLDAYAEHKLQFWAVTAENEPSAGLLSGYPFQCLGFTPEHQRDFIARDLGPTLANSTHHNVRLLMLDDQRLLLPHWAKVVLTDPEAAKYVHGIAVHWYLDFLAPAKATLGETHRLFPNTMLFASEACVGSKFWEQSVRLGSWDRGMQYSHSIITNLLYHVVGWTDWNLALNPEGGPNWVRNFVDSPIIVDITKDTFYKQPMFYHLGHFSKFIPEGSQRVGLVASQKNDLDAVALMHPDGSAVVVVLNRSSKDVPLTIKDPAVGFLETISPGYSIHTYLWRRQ

Potency, inactive:
O=C(CSc1nnc(CNC(=O)c2c(F)cccc2Cl)o1)Nc1ccccc1 > 76.9 µM
COc1ccc(CCC(=O)Nc2nc3c(s2)CN(C)CC3)cc1OC > 76.9 µM
CCn1ccc(C(=O)Nc2ccc(S(=O)(=O)Nc3ccccc3OC)cc2)n1 > 76.9 µM
CCn1c(Cc2ccccc2)nnc1SCC(=O)Nc1ccc2c(c1)OCO2 > 76.9 µM
COc1cc2c(cc1OC)CN(C(=O)CC1CC3CCC1C3)CC2 (centres undefined) > 76.9 µM
COc1cccc(NC(=O)N2CCC(C(=O)Nc3ccc(C)cc3C)CC2)c1 > 76.9 µM
O=C(NCC1CCCO1)C(C(=O)c1ccccc1)n1cc(Cl)ccc1=O (centres undefined) > 76.9 µM
CC(CN1CCCCC1)OC(=O)c1ccc(Cl)cc1 (centres undefined) > 76.9 µM
CCc1ccccc1NC(=O)N1C2CCCC1CC(NC(C)=O)C2 (centres undefined) > 76.9 µM
Cc1ccc(SCc2[nH]nc3c2C2(C(=O)N(C)c4ccccc42)C(C#N)=C(N)O3)cc1 (centres undefined) > 76.9 µM
COc1ccc(-c2nc(NC(=O)C3CCN(c4nc5ccccc5o4)CC3)sc2C)cc1 > 76.9 µM
O=C(NCc1ccc(N2CCCC2=O)cc1)NC1CCCCC1 > 76.9 µM
COc1ccc(OC)c(C2C(C#N)=C(N)Oc3c2c(C)nn3-c2ccc(C)cc2)c1 (centres undefined) > 76.9 µM
O=C(COc1ccc(C(=S)N2CCOCC2)cc1)N1CCCC1 > 76.9 µM
COc1ccc(-c2cc(C(F)(F)F)nc(SCCC(=O)NCc3ccco3)n2)cc1 > 76.9 µM
O=C(NCC(=O)N(CCc1ccccc1)C(C(=O)NC1CCCC1)c1cccnc1)c1ccco1 (centres undefined) > 76.9 µM
COc1ccc(CC(=O)Nc2cc(C)on2)cc1 > 76.9 µM
Cn1c2ccccc2c2nnc(SC3CCOC3=O)nc21 (centres undefined) > 76.9 µM
CC1Cc2cc(/C(O)=C3\C(=O)C(=O)N(CCN(C)C)C3c3ccccc3F)ccc2O1 (centres undefined) > 76.9 µM
CNC(=O)c1ccc2nc(NC(C)=O)sc2c1 > 76.9 µM
Nc1ccc(S(=O)(=O)Nc2ccc(S(N)(=O)=O)cc2)cc1 > 76.9 µM
CC(C)CC(c1nnnn1CC1CCCO1)N1CCN(Cc2ccc3c(c2)OCO3)CC1 (centres undefined) > 76.9 µM
COC(=O)c1[nH]c2ccccc2c1NC(=O)CN1CCCc2ccccc21 > 76.9 µM
CCN(CC)S(=O)(=O)c1ccc(NC(=O)c2cccc3c2C(=O)N(CCOC)C3)cc1 > 76.9 µM

From PubChem BioAssay AID360 (National Center for Advancing Translational Sciences (NCATS), 2006)
